Source: ChEMBL document CHEMBL4888484, “Replenishing the malaria drug discovery pipeline: Screening and hit evaluation of the MMV Hit Generation Library 1 (HGL1) against asexual blood stage Plasmodium falciparum ,using a nano luciferase reporter read-out” (2022)
Screen size: about 150,000 compounds; about 540 (0.36%) showed an effect of 50% or more. This is one part of the list.

tested on: Plasmodium falciparum; test: Primary screen in NF54 nanoGlo assay, in single point, at 2uM, 72h; a lower Z score goes with more inhibition; type: functional, Erythrocyte; settings: timepoint 72 hour

Structure (SMILES) | % Inhibition [%] | Z score
Cc1cc(F)cc(NC(=O)N2C[C@@H]3[C@@H](CN(C)C)[C@@H]3C2)c1 | 6 | -0.84
Cc1cc(C(=O)N2CCC(C(N)=O)CC2)c(C)n1C1CC1 | -8 | 0.66
Cc1nn(CC(=O)Nc2nn(C)c3ccccc23)c(C)c1-c1ccncc1 | -15 | 2.26
Cc1oc(-c2ccccc2)nc1CN1C(=O)c2ccccc2C(C)(C)C1=O | 7 | -1.01
Cn1nc(CN(C(=O)NCc2ccc(Cl)cc2)C2CCCC2)c2c1CCC2 | 0 | 0.03
CCOC(=O)C(C)(C)c1csc(Cc2csc(C)n2)n1 | -15 | 2.03
N#Cc1ncn(Cc2nc(-c3cc(F)c(F)c(F)c3)no2)c1C#N | -3 | 0.26
CN1CCC2(CC1)CCN2C(=O)NCc1ccnc(OC(F)F)c1 | -14 | 1.75
COc1cncc(C(=O)N2CCOC[C@@]23CCOC3)n1 | 2 | -0.36
O=C(NC[C@H]1CCCN(C(=O)c2ccoc2)C1)c1cnc2ccccn2c1=O | -13 | 2.11
CCOCCCC(=O)NCc1nc(CC)c[nH]1 | -7 | 0.9
CN1CCN(C(=O)c2ccc(-c3cccnc3N)cc2)C[C@@H]1CCO | -11 | 2.1
Cc1cscc1NC(=O)NCc1nc(C(C)(C)C)cs1 | 0 | -0.01
COc1ccc(C(=O)N2CCn3cccc3[C@H]2c2cccs2)cc1 | 19 | -2.43
Cn1cc(CN2CCCc3c(Br)cccc3C2)nn1 | -8 | 1.24
CC1(C)COC[C@H](CS(N)(=O)=O)O1 | -9 | 1.44
COc1ccc(-n2nc(C)c3c(NCCNC(=O)CC(C)C)nc(C4CC4)nc32)cc1 | -5 | 0.78
O=C(COc1ccc(Cl)cc1)N[C@@H]1COCC[C@@H]1OCc1ccccn1 | -5 | 0.48
O=C(NCc1ccc2cc[nH]c2n1)N[C@H]1COc2ccc(Cl)cc21 | 11 | -1.1
Cn1c(C(=O)N2CCC2)cc2ccc(Cl)cc21 | -10 | 1.65
CCn1ccc(C(=O)N2CCC[C@H](CNC(=O)c3ccc(F)cc3C)C2)cc1=O | -6 | 1.25
CCN(Cc1nc(C)no1)C(=O)NCC1(N2CCOCC2)CCCCCC1 | 2 | -0.37

Structure (SMILES) | % Inhibition [%] | Z score
O=S(=O)(c1cc(F)ccc1N1CC[C@H](O)C1)C(F)(F)F | 5 | -0.52
O=C(Cc1cccs1)Nc1nnc(-c2ccccc2)o1 | -8 | 0.98
Cc1nc(CCNC(=O)c2ccc(-c3ccc4c(c3)OCCO4)s2)c(C)o1 | 17 | -1.89
O=C(O)COc1cccc(C(=O)N[C@@H]2c3ccccc3CC23CCOCC3)c1 | -1 | 0.29
CCCN(CC(=O)N1CCc2sccc2[C@@H]1COc1ccccc1)C(=O)c1cccc(C)c1 | 0 | -0.03
CO[C@@H](C)C(=O)NCCc1nc(-c2ccccc2)c(C)s1 | 0 | 0
Cc1cc(S(=O)(=O)N2CC(Nc3ccncn3)C2)ccc1F | -5 | 1.06
CCC(C)c1nnc2n1CCC(C(=O)OC)C2 (stereo unspecified) | -10 | 2.03
Cc1nc(CCCNC(=O)Nc2cccnc2O)sc1C | -15 | 1.86
CCCOCC(=O)N1CCC(n2c(=O)[nH]c3cccnc32)CC1 | 3 | -0.34
COc1ccc(Cl)cc1[C@@H](O)CNc1nccs1 | -7 | 1.28
Cc1ccc(C#N)c(N2CCN(CC(C)C)C(=O)C2)n1 | 1 | -0.09
C[C@@H](c1cnn(C)c1)c1nc(C2(C(F)(F)F)CCC2)no1 | -2 | 0.34
C[C@]1(C(N)=O)CCN(c2nnc(-c3cccc(Cl)c3)n2Cc2ccccc2)C1 | -3 | 0.53
O=C(c1nc2ccccc2s1)N1CC(n2ccnn2)C1 | -20 | 2.24
CN(CC(=O)NCCc1nc(-c2cccnc2)n[nH]1)Cc1ccccn1 | -10 | 0.97
CC(C)C1CC(c2csc(N)n2)CCO1 (stereo unspecified) | -2 | 0.34
CCc1ccc(-n2nc(C)c3c(C)cc(OCC(=O)NC4CCCCC4)nc32)cc1 | -16 | 1.8
COC1CCC(N(C)S(=O)(=O)c2ccc(C)c(N(C)C)c2)CC1 (stereo unspecified) | 1 | -0.08
Nc1ccc(-c2nnc(-c3ccc(-c4ccccc4)cc3)o2)cc1 | -18 | 3.44
Cc1cccc(N(CCC#N)C(=O)c2cc3ccccc3c(=O)[nH]2)c1 | -18 | 1.68
